{"source": "PubChem BioAssay AID686979", "about": "(National Center for Advancing Translational Sciences (NCATS), 2013)", "note": "Where “and” joins values, the source holds several entries; their conditions need not be identical. Equal entries are not always repeated. Screen size: about 420,000 compounds; about 50,000 (12%) were called active. Inconclusive results, whose numbers are uncertain, are shown with a selection of clear calls. Calls come from the whole dose curve; as a rule, active = well fitted inhibition curve with a large enough effect; inconclusive = small, poorly fitted or top-dose-only effect; inactive = flat fitted curve, though single readings scatter. No potency is given beside an inconclusive call; the fits are too rough. % is set by controls: 0 for no effect and ±100 for the full control effect; potency is the fitted concentration of half-maximal effect; tags give direction and shape of the fitted curve."}
{"assay": "qHTS for Inhibitors of human tyrosyl-DNA phosphodiesterase 1 (TDP1): qHTS in cells in presence of CPT; note: nearly all actives have a fitted effect of over 55% in size", "conditions": "chicken DT40 Tdp1-/-;hTDP1 cells + 20 nM CPT, ATP luminescence, 48 h; activity change, negative = growth inhibition: at 46.2 µM (top of the series)", "summary_of_the_method": "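Cell growth measured by CellTiter-Glo luminescence after a minimum 48 h, 37 C compound exposure with 20 nM CPT in Tdp1-knockout DT40 cells stably expressing hTDP1, seeded 400/well; qHTS titration format.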"}
{"smiles": "c1ccc2c(c1)nnn2Cc1nnc2sc(-c3ccc4c(c3)OCCO4)nn12", "Potency": "inconclusive [inhibitor, single point]"}
{"smiles": "Cc1cccc(C)c1NC(=O)C(c1ccnc2ccccc12)n1c(=O)c(-c2ccccc2)nc2ccccc21", "note": "(stereo not drawn)", "Potency": "inconclusive [inhibitor, partial curve, poor fit]"}
{"smiles": "O=C(Cn1nnc(-c2cc(Cl)ccc2-n2cnnn2)n1)N1CCCc2ccccc21", "Potency": "inconclusive [inhibitor, single point]"}
{"smiles": "Cc1ccccc1-n1c(=O)cc(NCc2ccc3c(c2)OCO3)[nH]c1=O", "Potency": "inactive"}
{"smiles": "CCc1ccc(NC(=O)CO/N=C(\\C)c2cc3ccccc3o2)cc1", "Potency": "inconclusive [inhibitor, single point]"}
{"smiles": "O=C(O)/C=C/C(=O)c1c(-c2ccccc2)[nH]c2ccccc12", "Potency": "inconclusive [inhibitor, single point]"}
{"smiles": "COc1ccc(/C=C/CN2CCN(Cc3ccc(F)cc3)C(CCO)C2)cc1", "note": "(stereo not drawn)", "Potency": "inconclusive [inhibitor, single point]"}
{"smiles": "CCCNC(=S)NC1CC2CCCC(C1)N2Cc1ccc(F)cc1", "note": "(stereo not drawn)", "Potency": "inconclusive [inhibitor, single point]"}
{"smiles": "COc1cc(/C=N/NC(=O)c2cccc([N+](=O)[O-])c2)ccc1OCc1ccccc1", "Potency": "inconclusive [inhibitor, single point]"}
{"smiles": "COc1ccc(-n2ccnc(NCc3ccccc3OC)c2=O)cc1", "Potency": "inconclusive [inhibitor, single point]"}
{"smiles": "CNC(=O)c1c(NC(=O)c2ccc(S(=O)(=O)N3CCCCC3)cc2)sc2c1CCC2", "Potency": "inconclusive [inhibitor, single point]"}
{"smiles": "OCCNc1nc(-c2cccnc2)nc2ccccc12", "Potency": "inactive"}
{"smiles": "CCOC(=O)C1CCN(C(c2cc3cc(C)cc(C)c3[nH]c2=O)c2nnnn2C2CCCCC2)CC1", "note": "(stereo not drawn)", "Potency": "inactive"}
{"smiles": "Cn1c2ccccc2c2c(C(=O)N3CCN(c4ccccn4)CC3)cn(C3CCCC3)c(=O)c21", "Potency": "inconclusive [inhibitor, single point]"}
{"smiles": "CCOC(=O)c1sc2ccccc2c1S(=O)(=O)Nc1ccc(CC)cc1", "Potency": "inconclusive [inhibitor, single point]"}
{"smiles": "COc1ccc(-c2cc(C(F)(F)F)nc(S(C)(=O)=O)n2)cc1", "Potency": "active: 2.31 µM and active: 2.59 µM"}
{"smiles": "O=C(Nc1ccc(Cl)cn1)c1ccc([N+](=O)[O-])o1", "Potency": "active: 2.31 µM"}
{"smiles": "CC(C(=O)Nc1ccc(F)c(F)c1F)N(C)Cc1cccs1", "note": "(stereo not drawn)", "Potency": "inconclusive [inhibitor, single point]"}
{"smiles": "CCC1CCCCN1Cc1nc2c(c(=O)n(C)c(=O)n2C)n1Cc1cccc2ccccc12", "note": "(stereo not drawn)", "Potency": "inconclusive [inhibitor, single point]"}
{"smiles": "C=CCn1c(CCC(=O)Nc2ccc(C)c(Cl)c2)nnc1SCC(=O)Nc1ccccc1C", "Potency": "inconclusive [inhibitor, single point]"}
{"smiles": "COc1ccc(C(=O)C[n+]2ccccc2/C=N/O)cc1", "Potency": "inconclusive [inhibitor, single point]"}
{"smiles": "N#Cc1ccccc1NC(=O)CNc1ccccc1N1CCCCC1", "Potency": "inconclusive [inhibitor, single point]"}
{"smiles": "CCN(CC(=O)Nc1c(F)cccc1F)C(=O)CCCc1cccs1", "Potency": "inactive"}
{"smiles": "COc1ccc(-c2cc(=O)[nH]c(NCc3ccccc3)n2)cc1", "Potency": "inconclusive [inhibitor, single point]"}
{"smiles": "COC(=O)C1=CN(Cc2ccc(OC)c(OC)c2)C=C(C(=O)OC)C1c1cccs1", "Potency": "inactive"}
{"smiles": "Cc1cccc(/C=N/NC(=O)C(C)Nc2cccc3ccccc23)n1", "note": "(stereo not drawn)", "Potency": "inconclusive [inhibitor, partial curve, poor fit]"}
{"smiles": "COc1ccc(-c2c(-c3cc(OC)c(OC)c(OC)c3)noc2C)cn1", "Potency": "active: 794 nM and active: 580 nM"}
{"smiles": "Cc1ccc(N2C(=O)N(CC(=O)Nc3c(C)cc(C)cc3Cl)C(=O)C2C)cc1", "note": "(stereo not drawn)", "activity change, negative = growth inhibition": "inconclusive: -34.7% [inhibitor]"}
{"smiles": "CCOc1cc(-c2noc(N)c2C#N)cc(OCC)c1OCC", "Potency": "inconclusive [inhibitor, single point]"}
{"smiles": "CN1CCc2c(c3cnc4cc(Cl)ccc4c3n2C)C1", "Potency": "inconclusive [inhibitor, full curve, poor fit]"}
{"smiles": "COCc1cc(O)c(O)c(O)c1-c1c(COC)cc(O)c(O)c1O", "Potency": "active: 5.01 µM"}
{"smiles": "COCCCNC(=O)/C(C#N)=C/c1c(N2CCN(c3ccccc3)CC2)nc2c(C)cccn2c1=O", "Potency": "inconclusive [inhibitor, single point]"}
{"smiles": "COc1ccc(CN2C(=O)C(CC(=O)NC3CCCCC3)CC(C(=O)N(C)C)=C2C)cc1", "note": "(stereo not drawn)", "Potency": "inconclusive [inhibitor, single point]"}
{"smiles": "COc1ccc(S(=O)(=O)N2CCOC2CNC(=O)C(=O)NCc2ccncc2)cc1C", "note": "(stereo not drawn)", "Potency": "inactive"}
{"smiles": "O=S(=O)(Nc1cc(F)ccc1F)c1ccc2[nH]c3c(c2c1)CCCC3", "Potency": "inconclusive [inhibitor, single point]"}
{"smiles": "CCn1ncc(Br)c1C(=O)N(C)C12CC3CC(CC(C3)C1)C2", "Potency": "inconclusive [inhibitor, single point]"}
{"smiles": "Cc1ccc(S(=O)(=O)NC(CC(C)C)C(=O)NCC(c2ccco2)N2CCCCC2)cc1", "note": "(stereo not drawn)", "Potency": "active: 23.1 µM"}
{"smiles": "CCN(CC)CCNC(=O)c1cn(CC)c2cc(N3CCN(C)CC3)c(F)cc2c1=O", "Potency": "inactive"}
{"smiles": "COc1ccc(NS(=O)(=O)c2cc(Br)cc3c2N(C(=O)C2CC2)CC3)cc1OC", "Potency": "active: 2.31 µM"}
{"smiles": "CCCCN(CCCC)CCNC(=O)Cn1nc(C)n2c(cc3sccc32)c1=O", "Potency": "inconclusive [inhibitor, single point]"}
{"smiles": "O=C(NCCCN1CCOCC1)c1ccc(CSc2ccc(Cl)cc2)cc1", "Potency": "active: 25.9 µM"}
{"smiles": "COc1cccc(CNC(=O)c2ccc3c(c2)c(C)c(C)n3Cc2ccccc2)c1OC", "Potency": "active: 20.6 µM"}
{"smiles": "COc1cc2c(cc1OC)C(c1cccs1)N(C(=S)NC(C)C)CC2", "note": "(stereo not drawn)", "Potency": "inconclusive [inhibitor, single point]"}
